Key:
Assay type in all cases: in vivo
[1] = system: Plasmopara viticola; test: Test Example G: Downy mildew on vine; details: for Test G (control value class, downy mildew on vine): 250 ppm, sprayed 2.5 ml/pot before inoculation; for Test G control value (downy mildew on vine): 250 ppm spray (2.5 ml/pot), preventive, control value class; for Test G (control value class): 250 ppm spray
Text: [Test Example G] Downy Mildew on Vine
Seeds of a test plant (grape variety: Neomuscat) were planted followed by cultivating until three to four first leaves appeared. […] After the sprayed dilutions were dried, a zoosporangia suspension (1-2×10^4 zoosporangia/ml) of Plasmopara viticola was inoculated to the plants by spraying.

[2] = system: Puccinia recondita; test: Test Example E: Brown rust on wheat; details: for Test E (control value class, brown rust on wheat): in vivo; for Test E control value (brown rust on wheat): preventive, control value class
Text: [Test Example E] Brown Rust on Wheat

[3] = system: Blumeria graminis f sp. hordei; test: Test Example D: Powdery mildew on barley; details: for Test D (control value class, powdery mildew on barley): in vivo; for Test D control value (powdery mildew on barley): preventive, control value class
Text: [Test Example D] Powdery Mildew on Barley
After the sprayed dilutions were dried, conidia of Blumeria graminis f sp. hordei were inoculated to the plants by shaking off.

[4] = system: Alternaia brassicicola; test: Test Example C: Alternaria sooty spot on cabbage; details: for Test C (control value class, Alternaria sooty spot on cabbage): in vivo; for Test C control value (Alternaria sooty spot on cabbage): preventive, control value class
Text: [Test Example C] Alternaria Sooty Spot on Cabbage
Seeds of a test plant (cabbage variety: Shikidori) were planted followed by cultivating until the cotyledons extended.

[5] = system: Botrytis cinerea; test: Test Example B: Gray mold on tomato; details: for Test B (control value class, gray mold on tomato): in vivo; for Test B control value (gray mold on tomato): preventive, control value class
Text: [Test Example B] Gray Mold on Tomato
Seeds of a test plant (tomato variety: Oogata Fukuju) were planted followed by cultivating until three to five first leaves (true leaves) appeared.

[6] = evaluated 7-10 days after inoculation
[7] = downy mildew on vine, Plasmopara viticola, 7-10 days after inoculation
[8] = brown rust on wheat, Puccinia recondita, 250 ppm spray
[9] = powdery mildew on barley, 250 ppm spray
[10] = Alternaria sooty spot on cabbage, 250 ppm spray
[11] = gray mold on tomato, Botrytis cinerea, 250 ppm spray
[12] = Downy mildew on vine, 2.5 ml/pot, evaluated 7-10 days after inoculation
[13] = Brown rust on wheat, control value=100{1-(n/3)}
[14] = Powdery mildew on barley, control value=100{1-(n/3)}
[15] = Alternaria sooty spot on cabbage, control value=100{1-(n/3)}
[16] = Gray mold on tomato, control value=100{1-(n/3)}

## CCOc1cc(F)c(-c2c(-c3ccccc3F)ccc(=O)n2C)c(F)c1 [Compound 591]
[1]; [6]
  Test G (control value class, downy mildew on vine): H (H shows more than 50% of control values)
[2]
  Test E (control value class, brown rust on wheat): H (H shows more than 50% of control values)
[3]
  Test D (control value class, powdery mildew on barley): H (H shows more than 50% of control values)
[4]
  Test C (control value class, Alternaria sooty spot on cabbage): H (H shows more than 50% of control values)
[5]
  Test B (control value class, gray mold on tomato): H (H shows more than 50% of control values)

## Cn1c(-c2c(F)cccc2F)c(-c2ccccc2F)ccc1=O [Compound 143]
[1]; Downy mildew on vine, 250 ppm sprayed before inoculation, 7-10 days after inoculation
  Test G control value: H (H shows more than 50% of control values)
[2]; Brown rust on wheat
  Test E control value: H (H shows more than 50% of control values)
[3]; Powdery mildew on barley
  Test D control value: H (H shows more than 50% of control values)
[4]; Alternaria sooty spot on cabbage
  Test C control value: H (H shows more than 50% of control values)
[5]; Gray mold on tomato
  Test B control value: H (H shows more than 50% of control values)

## CCOc1cc(F)c(-c2c(-c3cc(OC)cc(OC)c3Cl)ccc(=O)n2C)c(F)c1 [Compound 247]
[1]; 7-10 days after inoculation
  Test G control value (downy mildew on vine): H (H shows more than 50% of control values)
[2]; 250 ppm spray
  Test E control value (brown rust on wheat): H (H shows more than 50% of control values)
[3]; 250 ppm spray
  Test D control value (powdery mildew on barley): H (H shows more than 50% of control values)
[4]; 250 ppm spray
  Test C control value (Alternaria sooty spot on cabbage): H (H shows more than 50% of control values)
[5]; 250 ppm spray
  Test B control value (gray mold on tomato): H (H shows more than 50% of control values)

## CCN1C(=O)CCC(c2cc(OC)cc(F)c2Cl)=C1c1c(F)cc(F)cc1F [Compound 614]
[1]; [6]
  Test G (control value class, downy mildew on vine): L (L shows 50% or less of control values)
[2]
  Test E (control value class, brown rust on wheat): H (H shows more than 50% of control values)
[3]
  Test D (control value class, powdery mildew on barley): H (H shows more than 50% of control values)
[4]
  Test C (control value class, Alternaria sooty spot on cabbage): H (H shows more than 50% of control values)
[5]
  Test B (control value class, gray mold on tomato): H (H shows more than 50% of control values)

## CCn1c(-c2c(F)cc(F)cc2F)c(-c2ccccc2Br)ccc1=O [Compound 651]
[1]; [6]
  Test G (control value class, downy mildew on vine): H (H shows more than 50% of control values)
[2]
  Test E (control value class, brown rust on wheat): H (H shows more than 50% of control values)
[3]
  Test D (control value class, powdery mildew on barley): H (H shows more than 50% of control values)
[4]
  Test C (control value class, Alternaria sooty spot on cabbage): H (H shows more than 50% of control values)
[5]
  Test B (control value class, gray mold on tomato): H (H shows more than 50% of control values)

## COc1cc(F)c(-c2c(-c3cc(F)cc(F)c3Cl)cc(Cl)c(=O)n2CC(F)F)c(F)c1 [Compound 679]
[1]; [6]
  Test G (control value class, downy mildew on vine): L (L shows 50% or less of control values)
[2]
  Test E (control value class, brown rust on wheat): H (H shows more than 50% of control values)
[3]
  Test D (control value class, powdery mildew on barley): H (H shows more than 50% of control values)
[4]
  Test C (control value class, Alternaria sooty spot on cabbage): H (H shows more than 50% of control values)
[5]
  Test B (control value class, gray mold on tomato): H (H shows more than 50% of control values)

## Cn1c(-c2c(F)cc(F)cc2F)c(-c2cccc(F)c2Cl)cc(Cl)c1=O [Compound 500]
[1]; [7]
  Test G (control value class): H (H shows more than 50% of control values)
[2]; [8]
  Test E (control value class): H (H shows more than 50% of control values)
[3]; [9]
  Test D (control value class): H (H shows more than 50% of control values)
[4]; [10]
  Test C (control value class): H (H shows more than 50% of control values)
[5]; [11]
  Test B (control value class): H (H shows more than 50% of control values)

## Cn1c(-c2c(F)cc(Br)cc2F)c(-c2cc(F)ccc2Cl)cc(Cl)c1=O [Compound 681]
[1]; [6]
  Test G (control value class, downy mildew on vine): L (L shows 50% or less of control values)
[2]
  Test E (control value class, brown rust on wheat): H (H shows more than 50% of control values)
[3]
  Test D (control value class, powdery mildew on barley): H (H shows more than 50% of control values)
[4]
  Test C (control value class, Alternaria sooty spot on cabbage): H (H shows more than 50% of control values)
[5]
  Test B (control value class, gray mold on tomato): H (H shows more than 50% of control values)

## COc1cc(F)c(-c2c(-c3cccc(OC)c3Cl)ccc(=O)n2C)c(F)c1 [Compound 663]
[1]; [6]
  Test G (control value class, downy mildew on vine): H (H shows more than 50% of control values)
[2]
  Test E (control value class, brown rust on wheat): H (H shows more than 50% of control values)
[3]
  Test D (control value class, powdery mildew on barley): H (H shows more than 50% of control values)
[4]
  Test C (control value class, Alternaria sooty spot on cabbage): H (H shows more than 50% of control values)
[5]
  Test B (control value class, gray mold on tomato): H (H shows more than 50% of control values)

## CCn1c(-c2c(F)cc(OC)cc2F)c(-c2cc(F)ccc2F)cc(Cl)c1=O [Compound 469]
[1]; [7]
  Test G (control value class): L (L shows 50% or less of control values)
[2]; [8]
  Test E (control value class): H (H shows more than 50% of control values)
[3]; [9]
  Test D (control value class): H (H shows more than 50% of control values)
[4]; [10]
  Test C (control value class): H (H shows more than 50% of control values)
[5]; [11]
  Test B (control value class): H (H shows more than 50% of control values)

## Cn1c(-c2c(F)cccc2F)c(-c2cccc(Cl)c2Cl)cc(Cl)c1=O [Compound 365]
[1]; 7-10 days after inoculation
  Test G control value (downy mildew on vine): L (L shows 50% or less of control values)
[2]; 250 ppm spray
  Test E control value (brown rust on wheat): H (H shows more than 50% of control values)
[3]; 250 ppm spray
  Test D control value (powdery mildew on barley): H (H shows more than 50% of control values)
[4]; 250 ppm spray
  Test C control value (Alternaria sooty spot on cabbage): H (H shows more than 50% of control values)
[5]; 250 ppm spray
  Test B control value (gray mold on tomato): H (H shows more than 50% of control values)

## CCn1c(-c2c(F)cc(F)cc2F)c(-c2cccc(F)c2Cl)cc(Br)c1=O [Compound 487]
[1]; [7]
  Test G (control value class): L (L shows 50% or less of control values)
[2]; [8]
  Test E (control value class): H (H shows more than 50% of control values)
[3]; [9]
  Test D (control value class): H (H shows more than 50% of control values)
[4]; [10]
  Test C (control value class): H (H shows more than 50% of control values)
[5]; [11]
  Test B (control value class): H (H shows more than 50% of control values)

## Cn1c(-c2c(F)cccc2F)c(-c2cccc(F)c2F)ccc1=O [Compound 535]
[1]; [7]
  Test G (control value class): L (L shows 50% or less of control values)
[2]; [8]
  Test E (control value class): H (H shows more than 50% of control values)
[3]; [9]
  Test D (control value class): H (H shows more than 50% of control values)
[4]; [10]
  Test C (control value class): H (H shows more than 50% of control values)
[5]; [11]
  Test B (control value class): H (H shows more than 50% of control values)

## CCOc1ccc(Cl)c(-c2cc(Cl)c(=O)n(CC)c2-c2c(F)cc(F)cc2F)c1 [Compound 793]
[1]; [12]
  Test G (control value class): L (L shows 50% or less of control values)
[2]; [13]
  Test E (control value class): H (H shows more than 50% of control values)
[3]; [14]
  Test D (control value class): H (H shows more than 50% of control values)
[4]; [15]
  Test C (control value class): H (H shows more than 50% of control values)
[5]; [16]
  Test B (control value class): H (H shows more than 50% of control values)

## CCN1C(=O)CCC(c2cc(F)cc(F)c2Cl)=C1c1c(F)cc(F)cc1F [Compound 583]
[1]; [6]
  Test G (control value class, downy mildew on vine): H (H shows more than 50% of control values)
[2]
  Test E (control value class, brown rust on wheat): H (H shows more than 50% of control values)
[3]
  Test D (control value class, powdery mildew on barley): H (H shows more than 50% of control values)
[4]
  Test C (control value class, Alternaria sooty spot on cabbage): H (H shows more than 50% of control values)
[5]
  Test B (control value class, gray mold on tomato): H (H shows more than 50% of control values)

## CCn1c(-c2c(F)cc(F)cc2F)c(-c2cccc(F)c2Cl)cc(Cl)c1=O [Compound 488]
[1]; [7]
  Test G (control value class): L (L shows 50% or less of control values)
[2]; [8]
  Test E (control value class): H (H shows more than 50% of control values)
[3]; [9]
  Test D (control value class): H (H shows more than 50% of control values)
[4]; [10]
  Test C (control value class): H (H shows more than 50% of control values)
[5]; [11]
  Test B (control value class): H (H shows more than 50% of control values)

## CCn1c(-c2c(F)cc(OC)cc2F)c(-c2cc(F)cc(F)c2Br)cc(Br)c1=O [Compound 820]
[1]; [12]
  Test G (control value class): H (H shows more than 50% of control values)
[2]; [13]
  Test E (control value class): H (H shows more than 50% of control values)
[3]; [14]
  Test D (control value class): H (H shows more than 50% of control values)
[4]; [15]
  Test C (control value class): H (H shows more than 50% of control values)
[5]; [16]
  Test B (control value class): H (H shows more than 50% of control values)

## COCCOCOc1ccc(Cl)c(-c2ccc(=O)n(C)c2-c2c(F)cccc2F)c1 [Compound 331]
[1]; 7-10 days after inoculation
  Test G control value (downy mildew on vine): H (H shows more than 50% of control values)
[2]; 250 ppm spray
  Test E control value (brown rust on wheat): H (H shows more than 50% of control values)
[3]; 250 ppm spray
  Test D control value (powdery mildew on barley): H (H shows more than 50% of control values)
[4]; 250 ppm spray
  Test C control value (Alternaria sooty spot on cabbage): L (L shows 50% or less of control values)
[5]; 250 ppm spray
  Test B control value (gray mold on tomato): H (H shows more than 50% of control values)

— patent publication US10299477B2 (priority 2015, dated 2019)
